Out of some 310,000 compounds screened, about 14,000 (4.5%) showed an effect of 50% or more. Effects have a minus sign here. Some of the results follow.
Target: human ether-à-go-go-related gene (hERG) potassium channel (human, UniProt Q12809)
Assay: primary screen, population patch clamp on CHO cells stably expressing hERG
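Also: peak tail current of the secondary pulse compared with the same well before compound.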

Sequence of human ether-à-go-go-related gene (hERG) potassium channel (Q12809 whole entry, looked up): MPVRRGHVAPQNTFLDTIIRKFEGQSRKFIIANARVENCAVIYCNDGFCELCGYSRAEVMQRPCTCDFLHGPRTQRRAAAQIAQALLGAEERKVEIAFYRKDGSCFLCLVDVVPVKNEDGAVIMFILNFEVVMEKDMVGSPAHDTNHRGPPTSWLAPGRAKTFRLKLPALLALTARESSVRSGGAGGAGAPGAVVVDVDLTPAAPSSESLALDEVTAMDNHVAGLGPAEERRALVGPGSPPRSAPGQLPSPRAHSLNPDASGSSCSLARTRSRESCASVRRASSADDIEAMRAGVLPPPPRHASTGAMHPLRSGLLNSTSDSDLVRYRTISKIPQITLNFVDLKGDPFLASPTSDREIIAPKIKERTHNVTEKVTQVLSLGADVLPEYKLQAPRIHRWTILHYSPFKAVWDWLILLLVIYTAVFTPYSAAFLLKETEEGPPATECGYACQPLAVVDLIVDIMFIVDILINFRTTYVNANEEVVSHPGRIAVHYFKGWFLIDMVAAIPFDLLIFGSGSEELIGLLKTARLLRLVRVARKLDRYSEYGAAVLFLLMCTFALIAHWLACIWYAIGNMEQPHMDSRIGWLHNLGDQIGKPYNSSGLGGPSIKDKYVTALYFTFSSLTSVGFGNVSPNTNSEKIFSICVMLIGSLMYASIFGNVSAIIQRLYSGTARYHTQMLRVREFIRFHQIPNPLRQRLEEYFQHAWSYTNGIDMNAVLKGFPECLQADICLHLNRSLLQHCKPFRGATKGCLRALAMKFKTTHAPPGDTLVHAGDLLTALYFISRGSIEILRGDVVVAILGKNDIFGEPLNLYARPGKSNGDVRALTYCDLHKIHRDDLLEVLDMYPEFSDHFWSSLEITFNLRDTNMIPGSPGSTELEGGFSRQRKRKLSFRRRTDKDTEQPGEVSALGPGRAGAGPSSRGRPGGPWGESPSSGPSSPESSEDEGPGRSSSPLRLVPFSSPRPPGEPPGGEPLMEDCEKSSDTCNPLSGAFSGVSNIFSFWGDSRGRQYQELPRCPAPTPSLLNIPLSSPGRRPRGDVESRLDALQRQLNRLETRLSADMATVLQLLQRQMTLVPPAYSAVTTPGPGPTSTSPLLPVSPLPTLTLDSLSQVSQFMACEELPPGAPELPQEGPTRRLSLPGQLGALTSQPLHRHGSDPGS

Question: With CCOC(=O)CSc1nc(-c2ccccc2)ns1 as the molecule, how does the “hERG current change (%, negative = inhibition) at 10uM” value read?
Answer: The value was 6.65%.

Question: Which “hERG current change (%, negative = inhibition) at 10uM” value does the source give for O=C(Cn1cc(C(F)(F)F)ccc1=O)N/N=C/c1ccc(Cl)cc1 here?
Answer: Its value is -11.3%.

Question: For CCC(=O)Nc1c(-c2ccccc2)c(=O)c2ccccc2n1C, which “hERG current change (%, negative = inhibition) at 10uM” value is on record?
Answer: Its value is 10.8%.

Question: Which “hERG current change (%, negative = inhibition) at 10uM” value does the source give for CC(C)C(c1nnnn1Cc1ccc(F)cc1)N1CCN(Cc2ccc3c(c2)OCO3)CC1 (centres unmarked) here?
Answer: The value was -43.3%.

Question: How did the “hERG current change (%, negative = inhibition) at 10uM” value turn out when COC(=O)c1ccc(CSc2ncnc3ccccc23)o1 was run?
Answer: The value was 12.7%.

Question: For CC(Oc1cccc(Cl)c1)C(=O)Nc1cc(S(=O)(=O)N2CCOCC2)ccc1N1CCCC1 (centres unmarked), which “hERG current change (%, negative = inhibition) at 10uM” value is on record?
Answer: Its value is -24.8%.

Question: With Cc1cc(NC(=O)C(C)SCC(=O)Nc2ccccc2N2CCCCC2)no1 (centres unmarked) as the molecule, how does the “hERG current change (%, negative = inhibition) at 10uM” value read?
Answer: Its value is 0.462%.

Question: How did the “hERG current change (%, negative = inhibition) at 10uM” value turn out when CCOC(=O)CSc1nnc(-c2ccoc2C)n1-c1ccc(OCC)cc1 was run?
Answer: The value was -66.5%.

Question: Which “hERG current change (%, negative = inhibition) at 10uM” value does the source give for CCOC(=O)c1c(/N=C/c2cc([N+](=O)[O-])ccc2O)sc(C)c1C here?
Answer: Its value is 11.1%.

Question: Which “hERG current change (%, negative = inhibition) at 10uM” value does the source give for C/C(=N\NC(=O)C(c1ccncc1)N1CCOCC1)c1ccc(Br)cc1 (centres unmarked) here?
Answer: The value was 9.75%.

Question: Which “hERG current change (%, negative = inhibition) at 10uM” value does the source give for CCN(c1cccc(C)c1)S(=O)(=O)c1c(C)[nH]c(C)c1C(=O)N1CCCCC1 here?
Answer: The value was 5.45%.

Question: COc1ccccc1/C=c1\sc2nc(-c3ccco3)nn2c1=O was tested. Which “hERG current change (%, negative = inhibition) at 10uM” value did it give?
Answer: Its value is 22.3%.

Question: O=C(Nc1ccncc1)c1c(Cl)cccc1Cl was tested. Which “hERG current change (%, negative = inhibition) at 10uM” value did it give?
Answer: Its value is 14.1%.

Question: Which “hERG current change (%, negative = inhibition) at 10uM” value does the source give for COc1ccc(/C=N/NC(=O)c2ccc3c(c2)NC(=O)C(C)(C)O3)cc1OC here?
Answer: Its value is -25.5%.

Question: For Cc1cccc(C)c1N(CC(=O)NC1CCCCC1)C(=O)c1csnn1, which “hERG current change (%, negative = inhibition) at 10uM” value is on record?
Answer: The value was 19.4%.

Question: With O=C(CCNC(=O)c1ccc(Br)cc1)Nc1ccccc1N1CCCC1 as the molecule, how does the “hERG current change (%, negative = inhibition) at 10uM” value read?
Answer: Its value is 2.6%.

Question: Which “hERG current change (%, negative = inhibition) at 10uM” value does the source give for O=C(CSc1nnc(SCc2cccc3ccccc23)s1)N/N=C/C=C/c1ccccc1[N+](=O)[O-] here?
Answer: Its value is -6%.

Question: For Cc1nn(Cc2ccccc2)c(C)c1NC(=O)c1cccs1, which “hERG current change (%, negative = inhibition) at 10uM” value is on record?
Answer: The value was 14%.

Question: With COc1ccc(Nc2nc(N)nc(CSC(=S)N3CCCCC3)n2)cc1 as the molecule, how does the “hERG current change (%, negative = inhibition) at 10uM” value read?
Answer: Its value is 0.179%.

Question: How did the “hERG current change (%, negative = inhibition) at 10uM” value turn out when COC(=O)c1cc(OC)c(OC)cc1NC(=O)c1csc(C)c1 was run?
Answer: The value was -29.2%.

Question: For CC(=O)CCc1oc2ccc(C)cc2c1-c1ccccc1, which “hERG current change (%, negative = inhibition) at 10uM” value is on record?
Answer: The value was -38%.

Question: For COC(=O)C(C(=O)Nc1ncccn1)C1CCCCCC1 (centres unmarked), which “hERG current change (%, negative = inhibition) at 10uM” value is on record?
Answer: Its value is -2.91%.

Question: Which “hERG current change (%, negative = inhibition) at 10uM” value does the source give for Cc1ccc(-n2c(Cn3nc(C(F)(F)F)cc3C)n[nH]c2=S)cc1 here?
Answer: Its value is 19.4%.

Question: With COC(=O)Cc1ccc(N(Cc2ccccc2F)S(=O)(=O)c2ccc(Br)cc2)cc1 as the molecule, how does the “hERG current change (%, negative = inhibition) at 10uM” value read?
Answer: The value was 18.4%.

Question: With Cc1ccc(S(=O)(=O)NCc2nc3ccccc3c(=O)n2N)cc1 as the molecule, how does the “hERG current change (%, negative = inhibition) at 10uM” value read?
Answer: The value was -7.71%.

Question: Which “hERG current change (%, negative = inhibition) at 10uM” value does the source give for Cc1csc(NC(=O)C(NC(=O)c2ccccc2F)C(C)C)n1 (centres unmarked) here?
Answer: The value was -8.88%.

Question: How did the “hERG current change (%, negative = inhibition) at 10uM” value turn out when CCc1cc2c(=O)nc3n(c2s1)Cc1ccccc1/C3=C(/O)c1ccccc1Cl was run?
Answer: The value was 4.51%.

Question: How did the “hERG current change (%, negative = inhibition) at 10uM” value turn out when c1ccc(-n2cnc3cc(NCc4cccs4)ccc32)cc1 was run?
Answer: The value was -21%.

Question: With O=C(O)CC(c1ccc(Br)cc1)N1Cc2ccccc2C1=O (centres unmarked) as the molecule, how does the “hERG current change (%, negative = inhibition) at 10uM” value read?
Answer: Its value is 9.27%.

Question: COc1ccc2nc(N3C(=O)CC(C(C)c4ccccc4)C3=O)sc2c1 (centres unmarked) was tested. Which “hERG current change (%, negative = inhibition) at 10uM” value did it give?
Answer: Its value is -21%.

Question: CC(=O)c1ccc(NC(=S)NC(=O)c2c(Cl)c(C)nn2C)cc1 was tested. Which “hERG current change (%, negative = inhibition) at 10uM” value did it give?
Answer: Its value is -5.81%.

Question: For Cn1c(CO)cnc1-c1ccccc1, which “hERG current change (%, negative = inhibition) at 10uM” value is on record?
Answer: Its value is 17.1%.

Question: With COc1ccc(C(=O)Nc2cc([N+](=O)[O-])ccc2N2CCCC2)cc1 as the molecule, how does the “hERG current change (%, negative = inhibition) at 10uM” value read?
Answer: Its value is -1.57%.

Question: How did the “hERG current change (%, negative = inhibition) at 10uM” value turn out when Cc1ccc(NC(=O)C(=O)Nc2ccccn2)cc1 was run?
Answer: The value was 1.88%.

Question: For CC[N+](CC)(CC#Cc1ccccc1)CC(=O)c1ccc(Cl)cc1, which “hERG current change (%, negative = inhibition) at 10uM” value is on record?
Answer: Its value is -60.3%.

Question: Which “hERG current change (%, negative = inhibition) at 10uM” value does the source give for CCN1CCCC1CNC(=O)c1ccc2c(c1)N(Cc1cccc(Cl)c1)C(=O)c1ccccc1S2(=O)=O (centres unmarked) here?
Answer: Its value is -39.7%.

Question: With Cc1ccc(N2CC(C(=O)N3CCC(C(=O)Nc4cccc(Br)c4)CC3)CC2=O)cc1 (centres unmarked) as the molecule, how does the “hERG current change (%, negative = inhibition) at 10uM” value read?
Answer: The value was -60.1%.

Question: CCN(c1ccccc1)S(=O)(=O)c1ccc(NC(=O)c2ccco2)cc1 was tested. Which “hERG current change (%, negative = inhibition) at 10uM” value did it give?
Answer: Its value is -18.2%.

Question: How did the “hERG current change (%, negative = inhibition) at 10uM” value turn out when CCNC(=S)NS(=O)(=O)c1ccc(CC)cc1 was run?
Answer: Its value is 18.2%.

Question: How did the “hERG current change (%, negative = inhibition) at 10uM” value turn out when COc1cc2c(cc1NC(=O)c1cccc(S(=O)(=O)N(C)C)c1)oc1ccccc12 was run?
Answer: Its value is 8.56%.

Question: CCCn1c(C)cc(=O)c2cc(NC(=O)c3cnccn3)ccc21 was tested. Which “hERG current change (%, negative = inhibition) at 10uM” value did it give?
Answer: Its value is -35.5%.

Question: With Cc1cc(C(=O)N/N=C/c2ccc([N+](=O)[O-])s2)n[nH]1 as the molecule, how does the “hERG current change (%, negative = inhibition) at 10uM” value read?
Answer: The value was 10.2%.

Question: COc1ccc(-c2nn3c(=O)c(C)nnc3s2)cc1 was tested. Which “hERG current change (%, negative = inhibition) at 10uM” value did it give?
Answer: Its value is 17.6%.

Question: With CCCCCc1ccc(-c2cn(Cc3cccc(OC)c3)nn2)cc1 as the molecule, how does the “hERG current change (%, negative = inhibition) at 10uM” value read?
Answer: Its value is 20.4%.
